Measured values: article PMC11347130
These are yes or no findings as the source states them, for the method shown. In cells and extracts the contact can be indirect. Some binding calls cover weakened binding; strength is not graded here.

By UniProt entry, the sequences of proteins in these tests, tags left out. Where a name states a change or a piece, a line headed by the entry shows the natural chain unless it says otherwise. Residues count along the entry.
UniProt Q99700: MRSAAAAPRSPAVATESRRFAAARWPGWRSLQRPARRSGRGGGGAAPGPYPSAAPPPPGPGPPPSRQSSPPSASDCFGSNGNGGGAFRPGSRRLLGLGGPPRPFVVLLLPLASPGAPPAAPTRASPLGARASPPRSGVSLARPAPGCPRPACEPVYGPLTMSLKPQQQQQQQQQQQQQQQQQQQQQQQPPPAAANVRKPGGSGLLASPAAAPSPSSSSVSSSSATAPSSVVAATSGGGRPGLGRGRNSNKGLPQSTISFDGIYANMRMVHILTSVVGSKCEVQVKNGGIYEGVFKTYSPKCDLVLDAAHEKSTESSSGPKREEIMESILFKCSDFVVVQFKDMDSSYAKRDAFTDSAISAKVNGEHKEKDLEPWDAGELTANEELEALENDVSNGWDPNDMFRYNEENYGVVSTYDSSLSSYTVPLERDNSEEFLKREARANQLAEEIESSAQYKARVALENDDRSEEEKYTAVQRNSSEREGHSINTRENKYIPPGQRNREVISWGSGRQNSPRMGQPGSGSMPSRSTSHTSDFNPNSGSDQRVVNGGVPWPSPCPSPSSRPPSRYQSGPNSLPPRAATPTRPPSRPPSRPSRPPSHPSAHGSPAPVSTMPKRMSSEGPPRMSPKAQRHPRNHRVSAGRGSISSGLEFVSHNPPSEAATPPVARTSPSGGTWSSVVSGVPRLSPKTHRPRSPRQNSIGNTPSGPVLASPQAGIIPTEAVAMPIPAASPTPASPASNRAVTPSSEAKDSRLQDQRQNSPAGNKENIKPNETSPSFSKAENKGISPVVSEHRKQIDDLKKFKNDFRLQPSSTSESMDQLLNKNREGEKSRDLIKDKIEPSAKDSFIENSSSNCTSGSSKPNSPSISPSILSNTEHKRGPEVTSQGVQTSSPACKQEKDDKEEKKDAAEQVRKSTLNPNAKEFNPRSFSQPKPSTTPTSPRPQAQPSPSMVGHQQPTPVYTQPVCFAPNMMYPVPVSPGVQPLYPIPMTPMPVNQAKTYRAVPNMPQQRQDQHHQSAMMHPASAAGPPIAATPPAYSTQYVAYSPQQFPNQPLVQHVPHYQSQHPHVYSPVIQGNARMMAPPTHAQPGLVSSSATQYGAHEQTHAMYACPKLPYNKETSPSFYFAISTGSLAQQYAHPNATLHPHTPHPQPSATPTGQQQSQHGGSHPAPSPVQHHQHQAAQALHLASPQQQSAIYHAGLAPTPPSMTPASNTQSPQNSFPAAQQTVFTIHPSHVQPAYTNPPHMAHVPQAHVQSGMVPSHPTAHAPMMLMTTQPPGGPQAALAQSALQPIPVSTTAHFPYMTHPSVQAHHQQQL
5 × Flag-ataxin-2 (906–1313): residues 906-1313 of Q99700
5 × Flag-GST-ataxin-2 (906–1095): residues 906-1095 of Q99700
5 × Flag-GST-ataxin-2 (1096–1313): residues 1096-1313 of Q99700

Assays:
Assay in all cases: co-IP; lysate of HeLa cells co-transfected with 5×Myc-ataxin-2 and a 5×Flag-tagged bait, precipitated with anti-Flag-agarose 1 h at 4°C; buffer A: 50 mM Tris-HCl pH 7.5, 50 mM NaCl, 0.1% NP-40, 1 mM DTT, 1 mM EDTA, 10 ug/ml RNase A; western blot with anti-Myc
[1] = biological target: 5 × Flag-GST-ataxin-2 (1096–1313) (human) (UniProt Q99700)
[2] = biological target: 5 × Flag-GST-ataxin-2 (906–1095) (human) (UniProt Q99700)
[3] = biological target: 5 × Flag-GST-ataxin-2 (906–1313) (human) (UniProt Q99700)
[4] = biological target: 5 × Flag-ataxin-2 (906–1313) (human) (UniProt Q99700)
[5] = biological target: ataxin-2 (5 × Flag-ataxin-2 and 5 × Myc-ataxin-2) (human) (UniProt Q99700)

In the case of “ataxin-2 (5 × Flag-ataxin-2 and 5 × Myc-ataxin-2) (from UniProt Q99700 1-1313)”, the binding [1] is reported as “binds”, the binding [2] is reported as “no binding” and the binding [3] is reported as “binds”. The binding [4] was “binds” and the binding [5] was “binds”.
